Experimental data as given in patent US11098029B2, “5-alkyl pyrrolidine orexin receptor agonists” (Merck Sharp & Dohme Corp., priority 2019, dated 2021).
At least one read-out could not be matched to a standard name with certainty. At least one compound was matched to its structure with a doubt left.

target: human OX2R (Homo sapiens (Human), UniProt O43614); assay: IPOne (IP-One, Cisbio) orexin receptor agonist assay in CHO cells expressing human OX2R; conditions: read-out: hOX2R_IP IC50, 2 hours incubation, head prints IC50, method reports EC50 (agonist)
Sequence (O43614 whole entry): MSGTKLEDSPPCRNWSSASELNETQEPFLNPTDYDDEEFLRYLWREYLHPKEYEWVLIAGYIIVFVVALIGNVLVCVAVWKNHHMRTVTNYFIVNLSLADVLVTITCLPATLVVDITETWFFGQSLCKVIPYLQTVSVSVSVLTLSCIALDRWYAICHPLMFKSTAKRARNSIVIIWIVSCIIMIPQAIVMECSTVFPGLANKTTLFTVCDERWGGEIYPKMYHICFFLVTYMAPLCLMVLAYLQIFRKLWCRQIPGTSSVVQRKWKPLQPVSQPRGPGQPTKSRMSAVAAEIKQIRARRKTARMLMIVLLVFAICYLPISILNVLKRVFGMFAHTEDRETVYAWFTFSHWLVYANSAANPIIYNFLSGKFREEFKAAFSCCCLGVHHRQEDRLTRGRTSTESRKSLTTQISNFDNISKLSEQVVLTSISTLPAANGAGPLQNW

Compound	IC50
COC(=O)N1[C@H](C)C[C@H](NS(=O)(=O)N(C)CC2CS(=O)(=O)C2)[C@@H]1CO[C@H]1CC[C@@H](c2cccc(F)c2)CC1 [Example 58, methyl (2R,3S,5R)-3-((N-((1,1-dioxidothietan-3-yl)methyl)-N-methylsulfamoyl)amino)-2-((((1s,4S)-4-(3-fluorophenyl)cyclohex-yl)oxy)methyl)-5-methylpyrrolidine-1-carboxylate]	1.8 nM
COC(=O)N1[C@H](C)C[C@H](NS(C)(=O)=O)[C@@H]1CO[C@H]1CC[C@H](c2cc(F)cc(F)c2)CC1 [Example 72, Methyl (2R,3S,5R)-2-((((1r,4R)-4-(3,5-difluorophenyl)cyclohexyl)oxy)methyl)-5-methyl-3-(methylsulfonamido)pyrrolidine-1-carboxylate]	108 nM
COC(=O)N1[C@H](C)C[C@H](NS(C)(=O)=O)[C@@H]1CO[C@H]1CC[C@H](c2ncccn2)CC1 [Example 69, Methyl (2R,3S,5R)-5-methyl-3-(methylsulfonamido)-2-((((1r,4R)-4-(pyrimidin-2-yl)cyclohexyl)oxy)methyl)pyrrolidine-1-carboxylate]	10400 nM
COC(=O)N1[C@H](C)C[C@H](NS(=O)(=O)N(C)C)[C@@H]1CO[C@H]1CC[C@@H](c2ccccc2)CC1 [Example 19, methyl (2R,3S,5R)-3-((N,N-dimethylsulfamoyl)amino)-5-methyl-2-((((1s,4S)-4-phenylcyclohexyl)-oxy)methyl)pyrrolidine-1-carboxylate]	0.5 nM
COC(=O)N1[C@H](C)C[C@H](NS(=O)(=O)N(C)CCOC(F)(F)F)[C@@H]1CO[C@H]1CC[C@@H](c2cccc(F)c2)CC1 [Example 59, methyl (2R,3S,5R)-2-((((1s,4S)-4-(3-fluorophenyl)cyclohex-yl)oxy)methyl)-5-methyl-3-((N-methyl-N-(2-(trifluoromethoxy)ethyl)sulfamoyl)amino)pyrro-lidine-1-carboxylate]	1 nM
methyl (CIS)-5-ethynyl-3-(methylsulfonamido)-2-((((CIS)-4-phenylcyclohexyl)oxy)methyl)-pyrrolidine-1-carboxylate [Example 47]	34.8 nM
C[C@@H]1C[C@H](NS(=O)(=O)N(C)C)[C@H](CO[C@H]2CC[C@@H](c3ccccc3)CC2)N1C(=O)OCC(F)F [Example 17, 2,2-difluoroethyl (2R,3S,5R)-3-((N,N-dimethylsulfamoyl)amino)-5-methyl-2-((((1s,4S)-4-phenylcyclohexyl)oxy)methyl)pyrrolidine-1-carboxylate]	0.53 nM
COC(=O)N1[C@H](C)C[C@H](NS(=O)(=O)N(C)CCO)[C@@H]1CO[C@H]1CC[C@@H](c2cccc(F)c2)CC1 [Example 56, methyl (2R,3S,5R)-2-((((1s,4S)-4-(3-fluorophenyl)cyclohex-yl)oxy)methyl)-3-((N-(2-hydroxyethyl)-N-methylsulfamoyl)amino)-5-methylpyrrolidine-1-carboxylate]	0.8 nM
COC(=O)N1[C@H](C)C[C@H](NS(C)(=O)=O)[C@@H]1CO[C@H]1CC[C@@H](c2cc(F)cc(F)c2)CC1 [Example 71, Methyl (2R,3S,5R)-2-((((1s,4S)-4-(3,5-difluorophenyl)cyclohexyl)oxy)methyl)-5-methyl-3-(methylsulfonamido)pyrrolidine-1-carboxylate]	0.76 nM
COCCN(C)S(=O)(=O)N[C@H]1C[C@@H](C)N(C(=O)OC)[C@H]1CO[C@H]1CC[C@@H](c2cccc(F)c2)CC1 [Example 55, methyl (2R,3S,5R)-2-((((1s,4S)-4-(3-fluorophenyl)cyclohex-yl)oxy)methyl)-3-((N-(2-methoxyethyl)-N-methylsulfamoyl)amino)-5-methylpyrrolidine-1-carboxylate]	1.2 nM
COC(=O)N1[C@H](C)C[C@H](NS(=O)(=O)N(C)CCC#N)[C@@H]1CO[C@H]1CC[C@@H](c2cccc(F)c2)CC1 [Example 54, methyl (2R,3S,5R)-3-((N-(2-cyanoethyl)-N-methylsulfamoyl)amino)-2-((((1s,4S)-4-(3-fluorophenyl)cyclohex-yl)oxy)methyl)-5-methylpyrrolidine-1-carboxylate]	0.7 nM
COC(=O)N1[C@H](C)C[C@H](NS(C)(=O)=O)[C@@H]1CO[C@H]1CC[C@@H](c2ccccc2)CC1 [Example 15, methyl (2R,3S,5R)-5-methyl-3-(methylsulfonamido)-2-((((1s,4S)-4-phenylcyclohexyl)oxy)-methyl)pyrrolidine-1-carboxylate]	3.18 nM
CCC1CC(NS(C)(=O)=O)C(CO[C@H]2CC[C@@H](c3ccccc3)CC2)N1C(=O)OC (stereo partly drawn) [Example 40, methyl (CIS)-5-ethyl-3-(methylsulfonamido)-2-((((CIS)-4-phenylcyclohexyl)oxy)-methyl)pyrrolidine-1-carboxylate]	4.56 nM
COC(=O)N1[C@H](C)C[C@H](NS(C)(=O)=O)[C@@H]1CO[C@H]1CC[C@@H](c2ncccn2)CC1 [Example 70, Methyl (2R,3S,5R)-5-methyl-3-(methylsulfonamido)-2-((((1s,4S)-4-(pyrimidin-2-yl)cyclohexyl)oxy)methyl)pyrrolidine-1-carboxylate]	892 nM
